Data reported in article PMC4336329 (PLoS ONE, 2015).
Screen size: about 310,000 compounds; about 14,000 (4.5%) showed an effect of 50% or more. Effects have a minus sign here. Some of the results follow.

Molecular target: human ether-à-go-go-related gene (hERG) potassium channel (human, UniProt Q12809)
Assay: primary screen, population patch clamp on CHO cells stably expressing hERG
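Note: peak tail current of the secondary pulse compared with the same well before compound.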

human ether-à-go-go-related gene (hERG) potassium channel, sequence (Q12809 whole entry, looked up): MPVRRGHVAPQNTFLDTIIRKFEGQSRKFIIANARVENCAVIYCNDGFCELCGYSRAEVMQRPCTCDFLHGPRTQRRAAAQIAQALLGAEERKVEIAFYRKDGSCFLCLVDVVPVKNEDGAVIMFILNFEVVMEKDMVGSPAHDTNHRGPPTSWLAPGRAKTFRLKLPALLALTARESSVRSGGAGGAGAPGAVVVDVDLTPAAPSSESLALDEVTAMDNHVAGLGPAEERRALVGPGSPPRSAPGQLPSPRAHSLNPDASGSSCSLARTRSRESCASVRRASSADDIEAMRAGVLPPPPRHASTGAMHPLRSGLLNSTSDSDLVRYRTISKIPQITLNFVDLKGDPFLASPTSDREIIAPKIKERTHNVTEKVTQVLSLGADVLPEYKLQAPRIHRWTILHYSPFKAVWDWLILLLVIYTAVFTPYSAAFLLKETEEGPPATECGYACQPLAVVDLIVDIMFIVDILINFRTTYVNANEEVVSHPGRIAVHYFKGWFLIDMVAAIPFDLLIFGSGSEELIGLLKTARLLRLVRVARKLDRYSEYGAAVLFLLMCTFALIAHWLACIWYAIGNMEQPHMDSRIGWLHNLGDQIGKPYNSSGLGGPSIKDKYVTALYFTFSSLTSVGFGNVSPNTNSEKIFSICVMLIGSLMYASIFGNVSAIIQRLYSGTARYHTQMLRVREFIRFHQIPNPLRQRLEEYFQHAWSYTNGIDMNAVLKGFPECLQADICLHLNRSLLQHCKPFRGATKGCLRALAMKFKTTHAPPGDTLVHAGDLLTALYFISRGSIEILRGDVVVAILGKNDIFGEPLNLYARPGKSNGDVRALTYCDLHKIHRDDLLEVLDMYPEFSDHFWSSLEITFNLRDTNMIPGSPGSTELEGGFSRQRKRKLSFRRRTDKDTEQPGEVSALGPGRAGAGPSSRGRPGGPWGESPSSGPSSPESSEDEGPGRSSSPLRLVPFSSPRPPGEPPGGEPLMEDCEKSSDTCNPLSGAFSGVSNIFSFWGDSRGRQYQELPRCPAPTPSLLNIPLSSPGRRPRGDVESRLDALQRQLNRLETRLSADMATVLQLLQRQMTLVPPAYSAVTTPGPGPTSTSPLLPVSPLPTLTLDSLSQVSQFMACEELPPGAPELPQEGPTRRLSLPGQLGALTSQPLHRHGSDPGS

Structure (SMILES) | hERG current change (%, negative = inhibition) at 10uM
CC(=O)Nc1ccc2c(c1)ncn2C | 22.2%
COc1c(C)cc(C(=O)C2CCCN(C(=O)c3cccc(-n4cccn4)c3)C2)cc1C (stereo not drawn) | -34%
CO/N=C/C1C(=O)NN=C1c1ccccc1 (stereo not drawn) | 7.12%
CC(C)COC(=O)OCN1C(=O)CN(CCN2CC(=O)N(COC(=O)OCC(C)C)C(=O)C2)CC1=O | -28.3%
O=C1Nc2cc(Cl)c(Cl)cc2N(O)N1c1ccccc1Cl | 11.1%
CC(Oc1ccc(Br)cc1)C(=O)NCC(C)(C)N1CCOCC1 (stereo not drawn) | -26%
COc1ccc(NC2CCCN(C(=O)CCCN3CCCCC3=O)C2)cc1 (stereo not drawn) | 11.5%
COc1ccc(C2=NOC(C)(c3nnc(-c4ccccc4)o3)C2)cc1 (stereo not drawn) | -58.3%
COc1ccc(CN2CCN(C(=O)CN3C(=O)C4C5C=CC(C5)C4C3=O)CC2)c(OC)c1OC (stereo not drawn) | 4.91%
CC1=C(c2ccccc2)[N+](=O)C2(CCCCC2)N1[O-] | -4.49%
O=C(C1CCN(c2nc3ccc(Br)cc3s2)CC1)N1CCC2(CC1)OCCO2 | -62.3%
COc1ccccc1-n1cc(CN2CCN(C3CCCCC3)C(CCO)C2)cn1 (stereo not drawn) | -11.4%
COc1ccc(Nc2nnc(Cc3ccncc3)c3ccccc23)c(OC)c1 | -72.7%
O=C(O)c1ccc(NC(=O)c2cn(-c3ccccc3)nc2-c2ccc(F)cc2)cc1 | 17.5%
CC(C)N(Cc1ccccc1)C(=S)NCc1ccccc1 | -15%
O=c1oc(-c2ccc([N+](=O)[O-])cc2)nc2ccc(O)cc12 | -1.05%
COc1ccc(C(C(=O)NC(C)(C)C)N(Cc2ccco2)C(=O)CCC(=O)Nc2cc(C)on2)cc1 (stereo not drawn) | 0.256%
COc1cc2c(cc1OC)C(c1ccccc1F)OC(=O)C2 (stereo not drawn) | 6.96%
Cc1cc(C)cc(NC(=O)CCn2ccnc2C)c1 | -8.43%
COc1ccccc1N1C(=O)c2cccnc2C1=O | 4.99%
CCOc1ccccc1-n1c(SCC(=O)N(C(C)C)C(C)C)nnc1-c1cccnc1 | 0.996%
Cc1cc(C)nc(NS(=O)(=O)c2ccc(NC(=O)Cn3c(=O)oc4ccccc43)cc2)n1 | 12.1%

Structure (SMILES) | hERG current change (%, negative = inhibition) at 10uM
Cc1cc(C)cc(NC(=O)CSc2nccn2Cc2ccco2)c1 | -9.2%
Oc1ccc[nH+]c1SCc1ccccc1.[Br-] | 12.7%
O=C(NCc1ccc(Cl)cc1)c1cc(S(=O)(=O)N2CCCCC2)c[nH]1 | -7.98%
COCCNC(=O)CN1C(=O)COc2ccc(S(=O)(=O)N3CC(C)CC(C)C3)cc21 (stereo not drawn) | 2.77%
O=C(c1cccs1)N1CCC(N2CCN(c3ccccc3)CC2)CC1 | -51.2%
C/C(=C\C(=O)c1sccc1Cl)N(C)C | 0.12%
O=C(CN1C(=O)/C(=C/c2ccc(F)cc2)SC1=S)N1CCN(CCc2ccccn2)CC1 | -32.4%
CCCOc1ccc(NC(=O)CC2C(=O)OCC3CCCCN32)cc1 (stereo not drawn) | -4.12%
c1ccc(C(c2nnnn2C2CCCCC2)N2CCc3ccccc3C2)nc1 (stereo not drawn) | -14.7%
CS(=O)(=O)N(CC(=O)Nc1ccc(S(=O)(=O)N2CCOCC2)cc1)c1cccc(F)c1 | -9.72%
Cc1ccccc1Nc1nc(N)nc(COC(=O)[C@@H](NC(=O)c2ccccc2Cl)C(C)C)n1 | -36.8%
CCNS(=O)(=O)c1ccc(C(=O)Nc2ccccc2)cc1 | 0.0275%
COc1ccc(S(=O)(=O)N2CCCC(C(=O)Nc3ccc(OC)c(OC)c3)C2)cc1 (stereo not drawn) | 7.61%
O=C(CSc1nnc(NC(=O)c2ccco2)s1)Nc1ccc(F)cc1F | 0.396%
CCOc1ccc(C2NC(=O)NC(C)=C2C(=O)OC)cc1C (stereo not drawn) | 0.776%
O=C(Nc1ccc(OC(F)(F)F)cc1)C1CC(=O)N(Cc2ccco2)C1 (stereo not drawn) | -30%
Cc1ccc(NC(=O)CCNS(=O)(=O)c2cc(Br)cnc2N)cc1Cl | -4.41%
CN(C)C(=O)N1CCCC(C(=O)NCCc2ccccc2)C1 (stereo not drawn) | 3.99%
O=C1NCCN(Cc2ccc(-c3ccccc3)cc2)C1CC(=O)N1CCN(CCO)CC1 (stereo not drawn) | 32.9%
O=C(Nc1ccccn1)c1ccc2c(c1)OCO2 | 8.93%
CC1CCN(S(=O)(=O)c2ccc3[nH]c(=O)ccc3c2)CC1 | -5.5%
CCCCn1c(N)c(N(CC)C(=O)c2cc3c(s2)CCCCC3)c(=O)[nH]c1=O | 0.737%

Structure (SMILES) | hERG current change (%, negative = inhibition) at 10uM
CC1CCN(CCNC(=O)C2CCCN(S(=O)(=O)c3cccc4nonc34)C2)CC1 (stereo not drawn) | -25.7%
CN(C)c1ncc(S(=O)(=O)c2ccccc2)c(N)n1 | 28.3%
O=S(=O)(NC1CCCCC1)c1ccc(S(=O)(=O)N2CCN3CCCC3C2)cc1 (stereo not drawn) | -4.12%
COc1ccc(CN(C)CC(=O)Nc2c(C)cccc2C)c(OC)c1 | -26.1%
Cc1cc(O)c2c(-c3ccccc3)cc(=O)oc2c1 | -11.4%
N#CC(C#N)=Cc1c(N2CCN(c3ccccc3)CC2)nc2ccccn2c1=O | -7.31%
COc1ccccc1N(Cc1ccccc1)S(=O)(=O)c1cccc(C(=O)Nc2ccccn2)c1 | 10.5%
CCN(CC(=O)Nc1ccccc1C(F)(F)F)C(=O)CCSc1ccc(F)cc1 | 8.81%
Cc1ccc(NC(=O)Cc2nnc(N)s2)cc1 | 11.1%
CCc1nnc(NS(=O)(=O)c2ccc(NC(=S)NC(=O)/C=C/c3ccccc3)cc2)s1 | 13.5%
O=C(CSc1nnc(-c2ccc3c(c2)OCCO3)o1)NC1CCCCC1 | -3.07%
Cc1ccc(N2C(=O)c3cccc4c(N)ccc(c34)C2=O)c2cccnc12 | 2.79%
O=C(NCCc1nc2ccc(Cl)cc2[nH]1)C1CCC(=O)N(Cc2cccc(F)c2)C1 (stereo not drawn) | -18.3%
COc1ccc(CCNC(=O)C2CCCN2C(=O)NC2CCCCC2)cc1OC (stereo not drawn) | 12%
O=C(Nc1ccc2c(c1)OCO2)NC1CCN(Cc2ccccc2)CC1 | -24.8%
O=S(=O)(Nc1cccc(C(F)(F)F)c1)c1cnc[nH]1 | 15%
CCOC(=O)c1ccc(NC(=O)CN2C(=O)C(C)SC(C)C2=O)cc1 (stereo not drawn) | 8.95%
Cc1nc(SCC(=O)NC(=O)NC(C)(C)C)nc(C)c1C | -8.95%
CC1(C)CC(=O)c2cc(C(=O)N3CCCC(C)(C)C3)c(=O)n(-c3ccccc3)c2C1 | 11.5%
CCCCCCN=CC1=C(O)CC(C)(C)CC1=O | 6.13%
CON(C)c1nc(OCCNC(=O)OCc2ccc(Cl)cc2C)nc(N(C)C)n1 | -17.8%
Cc1ccc(C)c(N2CCN(c3ccc4cc(S(=O)(=O)N5CCCCC5)ccc4n3)CC2)c1 | 17.1%

Structure (SMILES) | hERG current change (%, negative = inhibition) at 10uM
COC(CNC(=O)CN1CCN(Cc2ccccc2F)C1=O)OC | 21%
CC(OC(=O)c1cc[n+]([O-])cc1)C(=O)Nc1ccc(Cl)cn1 (stereo not drawn) | -2.36%
Cc1ccc(O)c(C=Nc2cc(C)ccc2O)c1 | -8.79%
COc1cc2c(cc1OC)C(C(=O)NCCN1CCOCC1)C1c3ccccc3CCN1C2=O (stereo not drawn) | 0.0223%
COc1ccccc1Cn1c(=S)[nH]c2cc(C(=O)N3CCN(c4ccccc4OC)CC3)ccc2c1=O | 15.5%
N#Cc1c2ccc(OCC(=O)NCc3ccco3)cc2n2ccccc12 | 14.8%
CCC(C)NC(=O)CN(c1cc(C)ccc1OC)S(C)(=O)=O (stereo not drawn) | 9.9%
CN1C(C(=O)Nc2ccc(C(=O)O)cc2)=C(O)c2ccccc2S1(=O)=O | 9.97%
Cc1ccc(NC(=O)c2cncc(Br)c2)c(O)c1 | 8.03%
COc1ccc2oc(/C=C/N(C)C)c(C(=O)c3ccc(Cl)cc3)c2c1 | 4.89%
COc1ccc(CC(=O)NC2CCN(CC(=O)N3CCCc4ccccc43)CC2)cc1OC.Cl | -6.4%
COc1ccc(S(=O)(=O)N2CCC(C(=O)N3CCN(C)CC3)CC2)cc1Cl | 4.71%
Cc1cnc(C(=O)Nc2ccc(N3CCN(C(=O)OC(C)(C)C)CC3)cc2)cn1 | 14.1%
COc1ccc(CCNC(=O)c2cc(S(=O)(=O)N3CCCC3)cn2C)cc1OC | 2.46%
Cc1ccc(NC(=S)N2CCCCC2CO)cc1C (stereo not drawn) | 6.38%
CC1CN2C(c3ccc([N+](=O)[O-])cc3)=CSC2=N1 (stereo not drawn) | -31%
CC(C)C(=O)Nc1nnc(SCC(=O)NCc2cccs2)s1 | 1.65%
Cc1ccc(N(CC(=O)Nc2ccc3c(c2)OCCO3)S(=O)(=O)c2c(C)n[nH]c2C)cc1 | -2.86%
c1cc2ccc3ccc(-n4cnnn4)c4ccc(c1)c2c34 | -12.8%
O=C(c1cccc(F)c1)N1CCCc2ccccc21 | 9.91%
O=c1[nH]c(C2CCN(S(=O)(=O)c3cccc([N+](=O)[O-])c3)CC2)nc2c1nnn2Cc1ccccc1 | 14.6%
